According to article PMC12334862 (Journal of Neurochemistry, 2025):

Molecular target: T1, > 5 MDa GephHO-Folch-CB2_(SH3-) complex (rat)
T1 construct: it elutes in the void volume (> 5 MDa); also called GephHO-CB2SH3- complex; high-molecular weight gephyrin-CB2SH3- complex; source: formed from purified E. coli proteins (GephHO, CB2SH3-) with Folch lipids in DDM micelles
Assay: SEC; analytical SEC of LS-αβICD with GephHO, with CB2SH3- or with GephHO, Folch and CB2SH3-; SDS-PAGE of peak fractions (Figure S4D,E)
Conditions: both partners purified

B1: LS-αβICD (heteropentameric yeast lumazine synthase carrying the GlyR α1 and GlyR β intracellular cytosolic domains) (complex)
chain 1: not shown
chain 2: AVNFVSRQHKELLRFRRKRRHHKSPMLNLFQDDEGGEGRFNFSAYGMGPACLQAKDGISVKGANNNNTTNPAPAPSKSPEEMRKLFIQRAKKIDK
  band ratio of LS-αβICD within the void volume peak P1: 63%
